The text below walks through data of ChEMBL document CHEMBL4888484, “Replenishing the malaria drug discovery pipeline: Screening and hit evaluation of the MMV Hit Generation Library 1 (HGL1) against asexual blood stage Plasmodium falciparum ,using a nano luciferase reporter read-out” (2022).

The whole screen tested about 150,000 compounds, of which about 540 (0.36%) showed an effect of 50% or more. This is one part of the list.

The % Inhibition is the drop in the measured response relative to a control, in per cent.

In this assay the test system is Plasmodium falciparum. Nature of the assay: Primary screen in NF54 nanoGlo assay, in single point, at 2uM, 72h; a lower Z score goes with more inhibition. In kind it is functional, Erythrocyte. As to conditions: timepoint 72 hour.
For `CC1CCN(C(=O)CN(C)c2cc(C(C)C)[nH]n2)CC1`, the “% Inhibition” value is listed as -10% and the Z score is 1.97.
For `O=C(Nc1ccc(C(=O)N2CCOCC2)c(F)c1)c1ccccn1`, in that order: -1% and 0.17.
For `CS(=O)(=O)N1CCN(c2ncnc3c2CCC3)CC1` the same measures were 1% and -0.08.
Regarding `O=C(CCc1c[nH]c2ccccc12)N[C@H]1CCc2nn(CC3CC3)c(=O)n2CC1`, the “% Inhibition” value was -8% and the Z score is reported as 1.3.
Consider `CCNC(=O)N1CCC(NC(c2ccccc2)C2CC2)C1` (stereo not drawn), for which the “% Inhibition” value is reported as -18% and the Z score came out at 2.57.
For the compound `CCCN(Cc1ccsc1)C(=O)[C@@H]1CC[C@H](C(=O)O)C1`, the “% Inhibition” value is recorded as -10% and the Z score is 1.37.
For the compound `COc1cccc(CNC(=O)c2nnc(C(=O)Nc3ccc(F)cc3)s2)c1`, the “% Inhibition” value was -18% and the Z score came out at 1.62.
As to `CN(C[C@H]1CCCCO1)C(=O)c1cccc(S(=O)(=O)N2CCC2)c1`, the “% Inhibition” value is on record as -16% and the Z score amounted to 1.74.
For `COc1ccc(CN(Cc2ccc(F)cc2)Cc2nc(C(=O)N3CCN(c4ccccc4C)CC3)cs2)cc1`, in that order: -14% and 1.38.
For `CCc1nc(NCc2ccnc(NC)c2)c2ccsc2n1` the same measures were -4% and 0.71.
Take `O=C(NCC1CN2CCCC2CO1)N1CC2CCCC2C1` (stereo not drawn): the “% Inhibition” value amounted to 0% and the Z score was determined as 0.04.
As for `Cc1cc(NC(=O)c2occc2-c2ccccc2)sn1`, the “% Inhibition” value is listed as 35% and the Z score was -5.
With `CCCOc1ncccc1CNc1cc(C)nc(N)n1`, the “% Inhibition” value was -8% and the Z score came out at 0.76.
Turning to `CC[C@H](OC)C(=O)N1CCCN(C2CCCCC2)CC1`, the “% Inhibition” value is listed as -9% and the Z score stood at 1.51.
Consider `CC(C)n1nnc(NC(=O)N2CN(CCN(C)C)C(=O)[C@@H]2C)n1`, for which the “% Inhibition” value is given as -5% and the Z score came to 0.89.
As for `N#Cc1nc(NC(=O)[C@@H]2Cc3cccc(F)c3O2)[nH]c1C#N`, the “% Inhibition” value is -7% and the Z score is on record as 0.74.
With `CC1CC(Nc2ccc(OCc3cccc(C#N)c3)c(F)c2)C(=O)O1` (stereo not drawn), the “% Inhibition” value is reported as -3% and the Z score is listed as 0.36.
For `Cc1ccc(N2CCC3(CCCN3Cc3ccc([C@@H]4CCCO4)s3)CC2)nn1`, in that order: -4% and 0.67.
For `O=C(NCCc1ccccn1)c1cnc(CN2CCCC2)s1` the same measures were 5% and -0.83.
On to `C#CCN1CCN(C(=O)CNc2cccc(NC(=O)CCC)c2)CC1`, for which the “% Inhibition” value was -3% and the Z score was found to be 0.42.
As to `FC(F)Oc1ccc(-c2c[n+](-c3cccc(C(F)(F)F)c3)c3n2CCCCC3)cc1`, the “% Inhibition” value came to 39% and the Z score is reported as -3.9.
For `Cc1cc(S(=O)(=O)Nc2nnc(C(C)C)o2)c(C)s1`, in that order: 2% and -0.14.
For the compound `C[C@H](NC(=O)CCn1cncn1)c1nc(-c2ccncc2)no1`, the “% Inhibition” value worked out at 6% and the Z score is given as -1.18.
For `NC(=O)c1[nH]nnc1NC(=O)[C@H]1CCCN(CC(F)(F)F)C1`, the “% Inhibition” value is on record as -16% and the Z score worked out at 2.41.
`COc1cc(C(=O)N2C[C@@H](CN3C[C@@H](C)O[C@@H](C)C3)[C@@H](CO)C2)ccc1O`: the “% Inhibition” value is -8% and the Z score turned out to be 1.04.
For `CC(C)(C)[C@@H]1CCCc2c(C(F)(F)F)nn(-c3nc4ccccc4s3)c21` the same measures were 6% and -1.
For `COc1ccc(C(=O)N2CC[C@H](c3ncc(C)n3C(C)C)C2)cc1` the same measures were -6% and 0.88.
Turning to `O=C(COCc1ccccc1)N1CC2(C[C@H](N3CCCC3)CO2)C1`, the “% Inhibition” value is 12% and the Z score was -1.39.
For `COc1cc(NC(=O)C(C)(C)C)c(OC)cc1Cl`, in that order: 21% and -2.44.
For `CC(C)N1C2CCC1CN(C(=O)C1CC=CCC1)CC2` (stereo not drawn) the same measures were -7% and 0.72.
In the case of `COc1ccccc1[C@@H](O)Cn1cc(C(=O)Nc2ccc(C(N)=O)cc2)nn1`, the “% Inhibition” value is given as -21% and the Z score is recorded as 4.01.
Consider `CCn1c(=O)c(CCC(=O)NCc2ccc(Cl)cc2)nc2c(C)nn(-c3ccccc3)c21`, for which the “% Inhibition” value is listed as -2% and the Z score came to 0.34.
With `Cc1ccc(-c2cc(CN(CC(C)C)C(=O)C(C)C)no2)cc1C`, the “% Inhibition” value is listed as 5% and the Z score is -0.88.
Take `Cc1nc(-c2cccs2)sc1C(=O)N1CCCC[C@@H]1C(=O)O`: the “% Inhibition” value is -9% and the Z score is 1.25.
With `Cc1cc(NC(=O)N[C@H]2CCCn3ncnc32)nn1-c1ccccc1`, the “% Inhibition” value is on record as -6% and the Z score is reported as 0.61.
Take `O=C(CC[C@@H]1N=C(O)N(Cc2ccccc2)C1=O)N1CCN(c2ccccn2)CC1`: the “% Inhibition” value was -14% and the Z score was 1.8.
Turning to `O=C(CCc1ccc2c(c1)OCO2)N1CCc2[nH]cnc2[C@H]1c1cccnc1`, the “% Inhibition” value stood at 3% and the Z score was -0.55.
For `O=C(c1cc2c([nH]c1=O)CCCCC2)N1CCCCCCC1`, the “% Inhibition” value was 0% and the Z score is on record as 0.04.
On to `C[C@@H]1CN(C(=O)CCC(F)(F)F)C[C@]1(C)O`, for which the “% Inhibition” value is given as -11% and the Z score worked out at 1.4.
With `COc1ccccc1N1CCN(c2ncccc2CNC(=O)c2cnc[nH]2)CC1`, the “% Inhibition” value amounted to 9% and the Z score is -1.78.
Consider `O=C1OC2CC1N(C(=O)c1c(F)cccc1Cl)C2` (stereo not drawn), for which the “% Inhibition” value is reported as -11% and the Z score is listed as 1.75.
`O=C(c1cc(Cl)cc(Cl)c1)N1CCC(CCc2ccc3c(c2)OCO3)CC1`: the “% Inhibition” value is on record as -18% and the Z score was found to be 1.73.
For `CCS(=O)(=O)c1ccc(O)c(NC(=O)[C@@H]2CCCc3[nH]ncc32)c1` the same measures were -16% and 1.37.
As to `O=C(NC1CCCC1c1ccccc1)c1cc(C2CC2)on1` (stereo not drawn), the “% Inhibition” value is on record as 10% and the Z score is recorded as -1.99.
In the case of `Cc1cccc(N2CCN(C(=O)C3CCN(c4nnc(N5CCCC5=O)s4)CC3)CC2)c1C`, the “% Inhibition” value was -17% and the Z score is recorded as 3.1.
In the case of `CNc1cc(C(=O)N[C@H]2CN(S(C)(=O)=O)C[C@@H]2C2CC2)ccn1`, the “% Inhibition” value was determined as 2% and the Z score is on record as -0.33.
For `CCCCCC(=O)N[C@H]1CO[C@@H](CN2CCC(F)(F)C2)[C@@H]1O`, in that order: 6% and -0.81.
For `COc1ccc(Cl)cc1C(=O)N1Cc2cncnc2C1`, in that order: -14% and 2.48.
As for `CCc1ccc(-c2c(-c3ccccc3)ncn2Cc2nnc(C)o2)nc1`, the “% Inhibition” value is given as -3% and the Z score worked out at 0.46.
For `Cc1cc2nc(C(=O)N[C@H]3CC(=O)N(C4CCCCCC4)C3)cc(C)n2n1`, in that order: 2% and -0.24.
As to `CCOc1ccc(-c2cc3n(n2)C[C@@](C)(C(=O)NC2CCCCC2)N(CCN(C)C)C3=O)cc1`, the “% Inhibition” value is given as 10% and the Z score is listed as -1.61.
For `CCN(C)c1ccccc1NC(=O)NC1CCCC1O` (stereo not drawn) the same measures were 7% and -1.24.
Consider `CN1C(=O)C[C@H](C(=O)NC(C)(C)c2nnc(N)s2)C1(C)C`, for which the “% Inhibition” value was 12% and the Z score was -1.59.
Regarding `COc1ccc(S(=O)(=O)N2CC[C@@H]3[C@@H](COCCN3Cc3ccccc3)C2)cc1`, the “% Inhibition” value is 36% and the Z score is given as -4.05.
In the case of `Cc1c(-c2ccc(F)cc2)[nH]c2ccc(CNC(=O)c3cccnc3)cc12`, the “% Inhibition” value is on record as -8% and the Z score was 1.35.
As to `CC(C)C(=O)Nc1ccc2c(c1)C(N1CCN(C(C)C)CC1)=Nc1ccccc1O2`, the “% Inhibition” value is reported as -4% and the Z score is reported as 0.71.
Regarding `O=C(c1ccc2c(c1)CCC2)N1CCOC2(CCS(=O)(=O)CC2)C1`, the “% Inhibition” value is reported as -1% and the Z score is 0.21.
With `CCn1ccc2ccn(Cc3cccc(OC)c3)c(=O)c21`, the “% Inhibition” value is on record as -24% and the Z score worked out at 2.1.
For `COc1nc(N2CCCCCC2)nc(N2CCC(N(C)C[C@H](C)O)CC2)n1` the same measures were -1% and 0.2.
For `CN=C(NCCc1cccs1)NC1CCCC1`, the “% Inhibition” value is listed as -4% and the Z score was 0.79.
Consider `CC(C)Oc1cccc(CN2C[C@H](C)NC(=O)c3ccccc32)c1`, for which the “% Inhibition” value stood at 2% and the Z score is on record as -0.27.
For `Cc1nnc(NC(=O)[C@H](C(C)C)N(C)C)s1`, in that order: -3% and 0.48.
On to `CC(C)c1nc([C@H](C)NC(=O)c2ccccn2)cs1`, for which the “% Inhibition” value is -5% and the Z score is listed as 0.48.
For `Cc1nc(C2CC2)ncc1C(=O)N1C[C@@H]2CC[C@H]1CN(Cc1cscn1)C2`, the “% Inhibition” value is given as -4% and the Z score amounted to 0.71.
For `Cc1cccc(C)c1NCC(=O)Nc1ncc(Cc2ccccc2)s1`, the “% Inhibition” value worked out at 0% and the Z score is reported as -0.06.
On to `Cc1nn(C)c2nc(N3CCCC[C@@H]3CCN3CCN(C)CC3)sc12`, for which the “% Inhibition” value is recorded as -5% and the Z score is on record as 0.94.
`COCCN1CCC[C@H](NC(=O)c2cc(F)cc3ccoc23)C1`: the “% Inhibition” value came out at 1% and the Z score is given as -0.09.
For the compound `Cc1nnc(Cn2ncnc2-c2ccccc2Cl)o1`, the “% Inhibition” value stood at 38% and the Z score is -5.51.
For `CC(C)(C)C[C@H]1CCN(C(=O)CCc2ccc(C(N)=O)cc2)C1(C)C`, in that order: -11% and 2.22.
`COc1ccc([C@H]2CC(O)=Nc3c2ncn3-c2cc(F)ccc2F)cc1O`: the “% Inhibition” value was -1% and the Z score was 0.08.
For `Cc1nccc(Oc2ccc(-n3ncc4ccccc43)cc2)n1`, in that order: -20% and 2.37.
Take `Cc1ccccc1NS(=O)(=O)c1cc(-c2ccnn2C)cs1`: the “% Inhibition” value is -5% and the Z score is listed as 0.62.
Consider `CCCCn1nc(CC(N)=O)nc1[C@@H]1[C@H]2[C@@H]3CC[C@@H](C3)[C@@H]12`, for which the “% Inhibition” value was found to be 13% and the Z score is -1.65.
On to `CCCC(O)(CCC)CNC(=O)C(=O)Nc1ccc(Br)cn1`, for which the “% Inhibition” value is -5% and the Z score turned out to be 0.94.
As to `Cc1noc(C2CCN(CCC(C)N3CCC(c4nc(C)no4)C3)C2)n1` (stereo not drawn), the “% Inhibition” value is recorded as 0% and the Z score is given as -0.01.
On to `CC(C)OCC1CCN(CCS(C)(=O)=O)CC1`, for which the “% Inhibition” value is reported as -10% and the Z score is reported as 1.88.
Take `CCOc1cc(N2CCC(NC(=O)c3ccoc3C)CC2)ncn1`: the “% Inhibition” value is reported as 4% and the Z score is -0.68.
As for `CC1=C(C)CC(C(=O)N2CCN(C3CCCCC3)CC2)C(C(=O)O)C1` (stereo not drawn), the “% Inhibition” value came out at 4% and the Z score is given as -0.88.
For `Cc1cccc(NS(=O)(=O)c2ccc3c(c2)OC[C@@H](C(=O)N2CCOCC2)O3)c1C`, the “% Inhibition” value is -22% and the Z score was 2.37.
As for `O=C(NCCN1C(=O)COC1=O)Nc1nc(-c2ccccn2)cs1`, the “% Inhibition” value is 10% and the Z score was -1.34.
For `CCCc1nc(CN2CCCC[C@@H]2Cn2cncn2)no1`, the “% Inhibition” value came to 3% and the Z score is -0.46.
For `CCn1ccnc1C1CCCCN1C(=O)C1CCCN(C(N)=O)C1` (stereo not drawn), the “% Inhibition” value is reported as 2% and the Z score was -0.36.
For `CO[C@@H]1CCC[C@@H]2CN(C(=O)C3(c4ccccc4)CCCC3)C[C@@H]21`, in that order: -4% and 0.35.
Consider `CCC[C@@H](CC(=O)O)NC(=O)c1ccn(C(F)F)n1`, for which the “% Inhibition” value was -15% and the Z score worked out at 1.95.
